Results as given in PubChem BioAssay AID2101 (National Center for Advancing Translational Sciences (NCATS), 2009).
About 300 (0.091%) of roughly 330,000 compounds were called active. The shares of active, inactive and inconclusive entries below differ from those in the screen. Calls follow the shape of the dose curve; as a rule, active = well fitted inhibition curve with a large enough effect; inconclusive = small, poorly fitted or top-dose-only effect, or effect the other way, or another doubt; inactive = no such curve, though single readings can be large or run the other way. Potencies of inconclusive entries are left out as doubtful fits.
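For activity change, negative = inhibition in this document: 0% = full enzyme activity and -100% = no enzyme basal.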
Potency is read from the fitted curve at half-maximal effect.

These compounds were tested against Lysosomal acid glucosylceramidase (Homo sapiens) (UniProt P04062) (assay: qHTS Assay for Inhibitors and Activators of N370S glucocerebrosidase as a Potential Chaperone Treatment of Gaucher Disease). Details: N370S GC spleen homogenate, 4MU-glucoside fluorescence; activity change, negative = inhibition: at 59.4 µM (top of the series) unless noted.
CN(Cc1ccccc1F)Cc1cc(=O)oc2cc(O)c(Cl)cc12 was tested, and the Potency was inconclusive [activator, partial curve]. In the case of CC(=O)Oc1ccc(-c2csnn2)cc1, the Potency is reported as “inactive”. For CC1CCN(S(=O)(=O)c2ccc3ccccc3c2)CC1, the Potency was inconclusive [activator, partial curve]. With Cc1cccc(NC(=O)Nc2ccc(F)cc2)n1 the Potency was inconclusive [activator, partial curve]. With C[n+]1cn(/N=C/c2ccccc2)c2ccccc21 the Potency was “inactive”. With COc1ccc(S(=O)(=O)Nc2ccccc2OC)cc1NC(=O)CC1CC2CCC1C2 (stereo not drawn) the Potency was inconclusive [activator, single point]. For Cc1noc(C)c1CSc1nnc(-c2c[nH]c3ccccc23)n1-c1ccc(Cl)cc1, the Potency was “inactive”. For COc1cccc(-c2ccc(NC(=O)C3CCCN(Cc4cnn(C(C)C)c4)C3)cc2)c1 (stereo not drawn), the Potency was inconclusive [inhibitor, single point]. For COc1ccccc1CCC(=O)OCc1csc(CC(=O)Nc2ccccc2C)n1, the Potency was inconclusive [activator, partial curve]. For CNC[C@H](CC1CCCCC1)NC[C@H](Cc1ccccc1)NCCC12CC3CC(CC(C3)C1)C2, the Potency was inconclusive [inhibitor, partial curve]. With O=C(NCc1ccccn1)c1c(O)c2c([nH]c1=O)CCCC2 the activity change, negative = inhibition was inconclusive: 34.5% [activator]. In the case of COc1cc(NC(=O)C2CCCCC2)c2ncccc2c1, the Potency is reported as inconclusive [activator, single point]. For O=C(CSc1ccccc1)Nc1cc(S(=O)(=O)N2CCOCC2)ccc1N1CCOCC1, the Potency was inconclusive [activator, partial curve]. With CCOC(=O)c1oc2nc(C(C)C)c3c(c2c1N)CC(C)(C)OC3 the Potency was inconclusive [activator, single point]. With Cc1cc2nc(-c3ccc[nH]c3=O)n(Cc3cccc(F)c3)c2cc1C the Potency was inconclusive [activator, single point]. In the case of O=c1[nH]c2ccc(S(=O)(=O)N3CCN(c4ccccc4)CC3)cc2[nH]c1=O, the Potency is reported as inconclusive [inhibitor, partial curve, poor fit]. In the case of C#CCOc1ccc2c3c(c(=O)oc2c1)CCCC3, the Potency is reported as inconclusive [activator, single point]. In the case of O=C(O)COc1ccc(OCCNC[C@@H](O)COc2ccccc2)cc1, the Potency is reported as “inactive”. Cc1ccc(NC(=O)Nc2c(Cl)cccc2Cl)cn1 was tested, and the Potency was inconclusive [activator, partial curve]. In the case of CCOc1ccc(N(Cc2cc3ccc(C)cc3[nH]c2=O)S(=O)(=O)c2ccccc2)cc1, the Potency is reported as inconclusive [activator, full curve]. With c1cc(C(c2nnnn2C2CCCC2)N2CCOCC2)ccn1 (stereo not drawn) the Potency was “inactive”. CC(=O)Nc1sc(C)c(C)c1C(=O)OCCOc1ccccc1 was tested, and the Potency was inconclusive [activator, partial curve]. In the case of COc1ccc2[nH]cc(CCNc3ccnc(-c4ccc5c(c4)OCO5)n3)c2c1, the Potency is reported as inconclusive [inhibitor, partial curve]. For CCOC(=O)C1CCCN(C(=O)c2cc(Nc3ccc(OC)c(OC)c3)nc3ccccc23)C1 (stereo not drawn), the Potency was inconclusive [inhibitor, single point]. For O=C(Nc1ccccc1-c1nc2ccccc2[nH]c1=O)c1cccs1, the Potency was inconclusive [activator, single point]. For COCc1nc2oc3ccc(C)cc3c(=O)c2cc1C(=O)OC, the Potency was “inactive”. For CC1CC(=O)N(CC(=O)Nc2cccc(Cl)c2)c2ccccc2S1(=O)=O (stereo not drawn), the Potency was inconclusive [activator, single point]. With Cc1ccc(-c2nnc(-c3ccccc3)o2)cc1 the Potency was “inactive”. CCN(CC(=O)NC(=O)NC1CCCCC1)Cc1nc2ccccc2c(=O)[nH]1 was tested, and the Potency was inconclusive [activator, partial curve]. With COC(=O)C1=C(C(=O)c2ccccc2)C(c2ccccc2)n2nnnc2N1 (stereo not drawn) the Potency was inconclusive [inhibitor, single point]. CCNc1ncc2nc(C)c(=O)n(C[C@H]3CCCO3)c2n1 was tested, and the Potency was inconclusive [activator, partial curve]. In the case of COc1ccccc1N(CC(=O)Nc1ccc(Br)cc1F)S(=O)(=O)c1cccs1, the Potency is reported as inconclusive [activator, partial curve]. In the case of O=C(CNC(=O)c1cccs1)c1ccc(Br)cc1, the Potency is reported as “inactive”. With O=C(C1=C[C@@H](c2ccc(C(F)(F)F)cc2)C[C@@H](OCCCCO)O1)N1CCN(Cc2ccccc2)CC1 the Potency was inconclusive [inhibitor, partial curve]. In the case of CCOc1cc(C2c3c(n[nH]c3C)C(=O)N2c2ccc(Br)cc2)ccc1O (stereo not drawn), the Potency is reported as “inactive”. Cc1ccc(C)c(-n2c(=O)c(C#N)cc3c(=O)n4ccccc4nc32)c1 was tested, and the Potency was inconclusive [activator, partial curve]. For C(=C\c1ccc2ccccc2n1)/c1ccccc1, the Potency was “inactive”. In the case of O=c1cc(CN2CCN(S(=O)(=O)/C=C/c3ccccc3)CC2)c2ccc(O)cc2o1, the Potency is reported as inconclusive [activator, partial curve]. For Cc1nn(CC(=O)NCCN2CCOCC2)c(C)c1[N+](=O)[O-], the Potency was inconclusive [inhibitor, full curve, poor fit]. In the case of COc1ccc(OC)c(NC(=O)CN(Cc2ccc(F)cc2)C2CCCCC2)c1, the Potency is reported as inconclusive [activator, single point]. With c1ccc(C[C@H]2CNCCN2CCC23CC4CC(CC(C4)C2)C3)cc1 the Potency was inconclusive [inhibitor, full curve]. With CCc1ccc(S(=O)(=O)Nc2ccc(-c3nc4cccnc4s3)cc2)s1 the Potency was inconclusive [activator, partial curve]. In the case of O=C(c1cccc(Oc2ccc([N+](=O)[O-])cc2Cl)c1)N1CCCCC1, the Potency is reported as inconclusive [activator, partial curve].
